Values after ≈ are worked out from the molar mass of the structure shown.
Assays:
[1] = tested on: Candida albicans ATCC 90028; assay: Inhibitory effect of bioenhancers alone; type: cell-based
[2] = tested on: Candida parapsilosis ATCC 22019; assay: Inhibitory effect of bioenhancers alone; type: cell-based
[3] = tested on: Candida glabrata ATCC 90030; assay: Inhibitory effect of bioenhancers alone; type: cell-based
M.tuberculosis H37Rv = conditions: Rifampicin alone at 20 mg/kg, once a day 5 days a week for 4 weeks, lungs and spleen
M tuberculosis 611 = assay: microbe, parasite or virus in culture; conditions: Mycobacterium tuberculosis
M tuberculosis 615 = assay: microbe, parasite or virus in culture; conditions: Mycobacterium tuberculosis
M tuberculosis 616 = assay: microbe, parasite or virus in culture; conditions: Mycobacterium tuberculosis

Molecule: 3′,5-Dihydroxy flavone 7-O-β-D-galacturonide-4′-O-β-D-glucopyranoside [pure molecule of Cuminum cyminum]
- inhibitory effect ([1]; conc. 0.2 μg/ml): ++++ (No inhibition)
- inhibitory effect ([1]; conc. 0.8 μg/ml): ++++ (No inhibition)
- inhibitory effect ([1]; conc. 3.12 μg/ml): ++++ (No inhibition)
- inhibitory effect ([1]; conc. 12.5 μg/ml): ++++ (No inhibition)
- inhibitory effect ([1]; conc. 50 μg/ml): ++++ (No inhibition)
- inhibitory effect ([1]; conc. 100 μg/ml): ++++ (No inhibition)
- inhibitory effect ([2]; conc. 0.2 μg/ml): ++++ (No inhibition)
- inhibitory effect ([2]; conc. 0.8 μg/ml): ++++ (No inhibition)
- inhibitory effect ([2]; conc. 3.12 μg/ml): ++++ (No inhibition)
- inhibitory effect ([2]; conc. 12.5 μg/ml): ++++ (No inhibition)
- inhibitory effect ([2]; conc. 50 μg/ml): ++++ (No inhibition)
- inhibitory effect ([2]; conc. 100 μg/ml): ++++ (No inhibition)
- inhibitory effect ([3]; conc. 0.2 μg/ml): ++++ (No inhibition)
- inhibitory effect ([3]; conc. 0.8 μg/ml): ++++ (No inhibition)
- inhibitory effect ([3]; conc. 3.12 μg/ml): ++++ (No inhibition)
- inhibitory effect ([3]; conc. 12.5 μg/ml): ++++ (No inhibition)
- inhibitory effect ([3]; conc. 50 μg/ml): ++++ (No inhibition)
- inhibitory effect ([3]; conc. 100 μg/ml): ++++ (No inhibition)

Molecule: CO[C@H]1/C=C/O[C@@]2(C)Oc3c(C)c(O)c4c(O)c(c(/C=N/N5CCN(C)CC5)c(O)c4c3C2=O)NC(=O)/C(C)=C\C=C\[C@H](C)[C@H](O)[C@@H](C)[C@@H](O)[C@@H](C)[C@H](OC(C)=O)[C@@H]1C [Rifampicin]
- deduction in log 10 CFU (M.tuberculosis H37Rv): 2 log
- MIC (M tuberculosis 611): 0.06 µg/mL (≈ 0.0729 µM)
- MIC (M tuberculosis 615): 0.06 µg/mL (≈ 0.0729 µM)
- MIC (M tuberculosis 616): 0.12 µg/mL (≈ 0.146 µM)

Molecule: O=C(/C=C/C=C/c1ccc2c(c1)OCO2)N1CCCCC1 [piperine]
- inhibition at 0.2 µg/mL ([1]; Candida albicans, ATCC90028, conc. 0.2 μg/ml): 0%
- inhibition at 0.8 µg/mL ([1]; Candida albicans, ATCC90028, conc. 0.8 μg/ml): 0%
- inhibition at 3.12 µg/mL ([1]; Candida albicans, ATCC90028, conc. 3.12 μg/ml): 0%
- inhibition at 12.5 µg/mL ([1]; Candida albicans, ATCC90028, conc. 12.5 μg/ml): 0%
- inhibition at 50 µg/mL ([1]; Candida albicans, ATCC90028, conc. 50 μg/ml): 0%
- inhibition at 100 µg/mL ([1]; Candida albicans, ATCC90028, conc. 100 μg/ml): 20%
- inhibition at 0.2 µg/mL ([2]; Lodderomyces parapsilosis, ATCC22019, conc. 0.2 μg/ml): 0%
- inhibition at 0.8 µg/mL ([2]; Lodderomyces parapsilosis, ATCC22019, conc. 0.8 μg/ml): 0%
- inhibition at 3.12 µg/mL ([2]; Lodderomyces parapsilosis, ATCC22019, conc. 3.12 μg/ml): 0%
- inhibition at 12.5 µg/mL ([2]; Lodderomyces parapsilosis, ATCC22019, conc. 12.5 μg/ml): 0%
- inhibition at 50 µg/mL ([2]; Lodderomyces parapsilosis, ATCC22019, conc. 50 μg/ml): 0%
- inhibition at 100 µg/mL ([2]; Lodderomyces parapsilosis, ATCC22019, conc. 100 μg/ml): 20%
- inhibition at 0.2 µg/mL ([3]; Nakaseomyces glabratus, ATCC90030, conc. 0.2 μg/ml): 0%
- inhibition at 0.8 µg/mL ([3]; Nakaseomyces glabratus, ATCC90030, conc. 0.8 μg/ml): 0%
- inhibition at 3.12 µg/mL ([3]; Nakaseomyces glabratus, ATCC90030, conc. 3.12 μg/ml): 0%
- inhibition at 12.5 µg/mL ([3]; Nakaseomyces glabratus, ATCC90030, conc. 12.5 μg/ml): 0%
- inhibition at 50 µg/mL ([3]; Nakaseomyces glabratus, ATCC90030, conc. 50 μg/ml): 0%
- inhibition at 100 µg/mL ([3]; Nakaseomyces glabratus, ATCC90030, conc. 100 μg/ml): 20%
